Measured values as given in the supplement of paper PMC3334620.
Over roughly 33,000 sequences, “E-score (-0.5 to 0.5)” has its median near -0.021; the highest 2% begin near 0.32. Some of the results follow.

What follows are sequences tested against T1, Zap1 (UniProt P47043) (assay: PBM E-score (8-mer binding enrichment) (E-score (-0.5 to 0.5)); higher = stronger / more preferred TF binding; most listed sequences are background and not binding sites). Details: protein concentration: 200 nM; construct: GST-full length.
T1 sequence: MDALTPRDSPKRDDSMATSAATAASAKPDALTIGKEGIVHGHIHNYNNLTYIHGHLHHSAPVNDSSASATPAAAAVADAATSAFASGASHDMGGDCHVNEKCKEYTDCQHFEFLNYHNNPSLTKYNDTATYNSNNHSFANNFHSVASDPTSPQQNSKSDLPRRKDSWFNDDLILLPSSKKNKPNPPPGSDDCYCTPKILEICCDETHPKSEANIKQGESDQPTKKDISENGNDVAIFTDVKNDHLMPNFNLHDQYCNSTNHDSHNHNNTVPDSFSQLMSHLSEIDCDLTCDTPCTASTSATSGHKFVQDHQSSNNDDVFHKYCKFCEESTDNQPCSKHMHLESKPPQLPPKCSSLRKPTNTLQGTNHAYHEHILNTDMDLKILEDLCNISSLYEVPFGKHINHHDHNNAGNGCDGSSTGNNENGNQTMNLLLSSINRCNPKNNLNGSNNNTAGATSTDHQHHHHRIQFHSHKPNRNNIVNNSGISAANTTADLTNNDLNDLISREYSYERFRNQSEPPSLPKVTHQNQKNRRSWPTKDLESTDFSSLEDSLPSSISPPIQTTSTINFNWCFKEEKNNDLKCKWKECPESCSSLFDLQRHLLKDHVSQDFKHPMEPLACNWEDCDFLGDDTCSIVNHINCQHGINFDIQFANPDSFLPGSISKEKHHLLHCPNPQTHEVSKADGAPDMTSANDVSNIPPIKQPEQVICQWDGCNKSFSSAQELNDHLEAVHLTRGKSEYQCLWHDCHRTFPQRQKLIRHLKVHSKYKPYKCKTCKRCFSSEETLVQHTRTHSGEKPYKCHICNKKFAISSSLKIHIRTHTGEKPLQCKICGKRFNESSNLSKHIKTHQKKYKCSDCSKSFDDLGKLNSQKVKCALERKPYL
Method in brief: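 Full-length yeast transcription factors or their DNA-binding domains, GST-tagged and expressed with PURExpress, were applied at about 100-200 nM to universal all-10-mer Agilent arrays. These arrays had been made double-stranded by primer extension on fresh or once-stripped slides. Detection used fluorescent anti-GST, normalisation used masliner, and E-scores for ungapped eight-base words pooled with reverse complements came from the Universal PBM Analysis Suite.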

Row | Sequence | PBM E-score
1 | GATACGGA | -0.122
2 | CTACGGAC | -0.105
3 | GAGCGTTA | -0.00965
4 | GCAAGCCA | -0.261
5 | GAATATGC | -0.197
6 | TAAGATCA | 0.163
7 | AGACACCA | -0.0997
8 | ACCCCGCA | 0.24
9 | AGAGTACA | -0.0126
10 | CCTGTTGA | -0.0239
11 | CGAACTGA | -0.13
12 | CGCCACTA | -0.111
13 | CGGAGACG | -0.0214
14 | TCCACAGA | -0.118
15 | GAACTCCA | -0.139
16 | CGCCTAAG | -0.148
17 | ATCGTGCG | 0.158
18 | CCAAGTCG | -0.0298
19 | GCAGATAA | 0.0842
20 | AATTATGA | 0.22
21 | AGCTTACG | 0.0267
22 | CCCACCTC | 0.118
23 | GAGACAGC | -0.0479
24 | AATGCTGA | -0.252
25 | GCCGCTGA | 0.0337

Row | Sequence | PBM E-score
26 | GACCCTCA | 0.189
27 | GTATAAGA | 0.0698
28 | CGAAGTCC | -0.0816
29 | ATATACGC | -0.144
30 | TGCCCGCA | 0.118
31 | TACTGCTA | -0.132
32 | AAACACAT | 0.0777
33 | ATCTGCTC | -0.21
34 | AGGGCCCT | 0.105
35 | AAATGACT | -0.262
36 | GCAGGTTA | 0.335
37 | ATCAGACG | -0.15
38 | ACTGCGGG | -0.0481
39 | AGAATAGC | 0.0192
40 | TGGAGCAA | -0.025
41 | ATCCTCGG | -0.175
42 | AGTCGTAC | -0.128
43 | CCCAATAA | 0.144
44 | GCGTTGAC | -0.0667
45 | ACGAGGGG | -0.242
46 | AGCCATTG | 0.0551
47 | AAAGTCAT | 0.0605
48 | AATGTGAC | 0.0388
49 | GAGCGGAA | -0.162
50 | AGATCCAC | -0.156

Row | Sequence | PBM E-score
51 | AGGACTAA | -0.0464
52 | CACGAGGG | 0.179
53 | ACAGGTAG | 0.13
54 | AGCAAGGA | -0.251
55 | AAACGCGC | -0.156
56 | CGTGTGCA | -0.25
57 | CAAGTGGG | -0.0175
58 | CACCCGTC | 0.0477
59 | CAACGGCC | -0.152
60 | AAGTGTAA | -0.0441
61 | ACTCACTG | 0.211
62 | AACAACAA | 0.181
63 | TCTCGTCA | -0.0679
64 | ATCTATGC | -0.159
65 | CCGACTAA | -0.0761
66 | GATCTCAC | -0.0823
67 | AAGATCAA | 0.152
68 | GACACTAA | 0.0353
69 | AATAGCCA | 0.0218
70 | AATTAATC | 0.0999
71 | GTTGCAAA | 0.154
72 | CTCCGCGC | -0.229
73 | AGGGTCTC | 0.218
74 | CTGCATGC | 0.0474
75 | AGTGCCTC | -0.116

Row | Sequence | PBM E-score
76 | CGCGATAG | -0.0835
77 | GAGAACTC | -0.146
78 | AAACGCAC | -0.00126
79 | ATCGTACG | -0.102
80 | AACAGCCC | 0.0107
81 | CCCAGGTA | 0.0671
82 | CAATGGGC | -0.167
83 | CCCCTCGA | 0.169
84 | GCTTATAC | -0.144
85 | TCTGGAAA | 0.045
86 | AGAGAGTA | -0.133
87 | GAGGCAAC | -0.184
88 | AAGGGATG | -0.203
89 | TCCACCGA | -0.115
90 | CGCTGCTA | -0.17
91 | GTTGGTAA | 0.184
92 | ACGTCCAA | -0.0463
93 | CGTGGAGA | -0.239
94 | ACGATTCG | -0.103
95 | GGCTTAAC | -0.0011
96 | ATGAGCGG | -0.167
97 | AGACGACA | -0.1
98 | ACCATAAG | 0.0852
99 | ATATCTGA | 0.0283
100 | GAGATTGA | -0.0354

Row | Sequence | PBM E-score
101 | ATGCCGCA | 0.0134
102 | ACCTGGAA | 0.22
103 | CATTCCCA | -0.203
104 | GACCAAGA | 0.0225
105 | CAGACGTA | -0.0838
106 | CAGGGATA | -0.0154
107 | TTCACAAA | 0.135
108 | GCTCATCC | -0.215
109 | CCCAGCTA | -0.152
110 | AAACCGCC | 0.173
111 | CGCACGTA | -0.125
112 | ACGCCCCC | -0.261
113 | TTACCTAA | 0.175
114 | GAATATTA | 0.137
115 | GGGCGTAC | 0.0025
116 | CTGCGGTA | 0.265
117 | ACCATTTA | 0.189
118 | CCAATGCG | -0.0619
119 | GTTGAAGA | -0.0696
120 | CGCCCAAC | -0.176
121 | CAATGCGA | -0.11
122 | ACCGCTGG | 0.0967
123 | AGGGACAG | -0.248
124 | TCATTGCA | 0.0366
125 | AGAGTAAT | 0.0866

Row | Sequence | PBM E-score
126 | TCTCAACA | 0.205
127 | GAACTCGC | 0.00491
128 | CCCGCGCC | -0.0593
129 | ACTTCCAG | -0.265
130 | AGTAGCCG | -0.123
131 | AGAACGTA | -0.186
132 | AATTAGCG | -0.0254
133 | GAAGAGGA | -0.272
134 | ACTCTTCT | -0.248
135 | AGGTCCGA | -0.0292
136 | CTAGCTCC | -0.246
137 | ATTCTAAG | 0.118
138 | AATGTCTC | -0.203
139 | AACAATGA | 0.108
140 | CCCTCCCC | 0.147
141 | CCACCCCG | 0.0489
142 | CCTCAAAC | 0.0422
143 | ATGTGAAG | -0.00714
144 | CATCATTC | -0.157
145 | AATTGAAA | 0.19
146 | TGTAGTAA | 0.035
147 | GATAATCA | 0.0211
148 | CACTGAGG | 0.0409
149 | GCTCTAAC | -0.1
150 | CCAGAATC | -0.00435

Row | Sequence | PBM E-score
151 | ATTCTGAC | -0.125
152 | CTCGGCTC | -0.0891
153 | CAGAAGTA | 0.202
154 | CATGGGGC | -0.0561
155 | GCAGCCAA | -0.00309
156 | ATGAGTGA | 0.1
157 | TCAACCCA | 0.185
158 | AGGTAAGC | -0.0806
159 | TCAGTGGA | -0.041
160 | CCAGCCGG | 0.0706
161 | ACAAACGA | 0.186
162 | TGCACGAA | 0.0909
163 | AGTGATAG | -0.0294
164 | TCAAAAAA | 0.202
165 | AAGTAACT | -0.0363
166 | ACTGTTAT | 0.159
167 | ATCTGCAT | 0.0146
168 | ATCGACCG | -0.132
169 | CGAGTTGC | -0.108
170 | GCCTCACA | -0.0151
171 | CGAAATCA | 0.217
172 | CGAGAAGA | -0.0799
